From PubChem BioAssay AID686978 (National Center for Advancing Translational Sciences (NCATS), 2013)
“And” between values parts separate entries of the source, which are not always exact repeats. Equal entries are not always repeated. The whole screen tested about 420,000 compounds, of which about 64,000 (15%) were called active. The shares of active, inactive and inconclusive entries below differ from those in the screen. The call rests on the fitted dose curve; in most records, active means well fitted inhibition curve with a large enough effect; inconclusive means small, poorly fitted or top-dose-only effect; inactive means flat fitted curve, though single readings scatter. Potencies of inconclusive entries are doubtful fits and often do not repeat.

Assay: qHTS for Inhibitors of human tyrosyl-DNA phosphodiesterase 1 (TDP1): qHTS in cells in absence of CPT; further: nearly all actives have a fitted effect of over 55% in size
Conditions: DT40 Tdp1-/- hTDP1 cells, no CPT, ATP luminescence, 48 h; activity change, negative = growth inhibition: at 46.2 µM (top of the series) unless noted
Method in brief: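 Stably hTDP1-transfected Tdp1-null chicken DT40 cells were treated with library compounds minus camptothecin and grown for at least 48 hr at 37 °C, after which cellular ATP was quantified by luminescence.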
On the % scale 0 is the no-effect control and ±100 the full control effect; potency means the concentration at half of the fitted maximal effect; tags describe the fitted curve by direction and shape.

| SMILES | Potency | activity change, negative = growth inhibition |
| --- | --- | --- |
| O=C(Nc1cc(C(F)(F)F)ccc1-n1cncn1)c1ccc(F)cc1Cl | inconclusive: 13 µM [inhibitor, partial curve, poor fit] | – |
| Cc1cccc2c3c([nH]c12)CCN(C)C3 | inconclusive: 6.51 µM [inhibitor, single point] | – |
| CC(C)NC(=O)N1CCC2(CC1)CCN(C(=O)c1cc(C(F)(F)F)cc(C(F)(F)F)c1)CC2 | inconclusive: 18.4 µM [inhibitor, partial curve] | – |
| CC1=NN(c2ccccc2)C(=O)/C1=C/c1ccc(-c2ccc(C)c(C(=O)O)c2)o1 | inconclusive: 18.4 µM [inhibitor, single point] | – |
| CN1CCN(c2ccc(Cl)cc2NC(=O)c2ccc(=O)n(C)n2)CC1 | inconclusive: 20.6 µM [inhibitor, single point] | – |
| O=C(NCc1ccccc1)C(=O)Nc1nc(C23CC4CC(CC(C4)C2)C3)cs1 | inconclusive: 18.4 µM [inhibitor, single point] | – |
| CN1C[C@@H]2[C@@H]3C(=O)N(Cc4ccccc4)C(=O)[C@@H]3[C@](C)(C1=O)N2C(=O)c1ccc(C(C)(C)C)cc1 | – | inactive: -6.92% |
| COc1cc2c(cc1OC)CN(C(=O)CN1CCN(S(=O)(=O)c3ccccc3)CC1)CC2 | inconclusive: 20.6 µM [inhibitor, single point] | – |
| O=C(O)CC1(CC(=O)N2CCOCC2)CCCC1 | – | inactive: 5.04% |
| Cc1nc2c(-c3ccc(F)cc3)c(C)nn2c(C)c1CCC(=O)N1CCN(c2ccccc2)CC1 | inconclusive: 20.6 µM [inhibitor, single point] and inconclusive: 18.4 µM [inhibitor, single point] | – |
| O=C(NCc1ccccc1Br)c1cccc2c1C(=O)c1ccc(N3CCC(Cc4ccccc4)CC3)cc1S2(=O)=O | inconclusive: 20.6 µM [inhibitor, single point] | – |
| CCCOC(=O)c1ccc(NC(=O)c2cccc(S(=O)(=O)N3CCN(C(C)=O)CC3)c2)cc1 | active: 16.4 µM | – |
| COc1ccc(CNc2nc(NCc3ccc(OC)cc3)c3[nH]cnc3n2)cc1 | active: 29.1 µM | – |
| Cc1ccc(OCCn2c(CCCO)nc3ccccc32)cc1 | – | inconclusive: -32.1% [inhibitor] |
| O=C(Nc1ccc(S(=O)(=O)N2CCCC2)cc1)c1ccc(CN2CCc3ccccc3C2)cc1 | active: 4.11 µM | – |
| O=C(Nc1nc2c(s1)CCCC2)C1COc2ccccc2O1 (configuration not stated) | inconclusive: 29.1 µM [inhibitor, single point] | – |
| COc1ccc(CCNC(=S)NC(=O)c2c(-c3ccccc3Cl)noc2C)cc1OC | inconclusive: 29.1 µM [inhibitor, single point] | – |
| Cc1ccc(CN2CCN(/N=C/c3ccc(C(F)(F)F)cc3)CC2)c(C)c1 | inconclusive: 25.9 µM [inhibitor, single point] | – |
| Cc1cc([N+](=O)[O-])nn1CC(=O)N1CCCc2ccccc21 | – | inactive: -20% |
| CCC(c1nnnn1Cc1ccc2c(c1)OCO2)N1CCN(c2ccc(OC)cc2)CC1 (configuration not stated) | inconclusive: 29.1 µM [inhibitor, single point] | – |
| Cc1ccc(-n2c(SCC(=O)N/N=C/c3ccc(C)s3)nnc2-c2ccccc2)cc1 | inconclusive: 16.4 µM [inhibitor, single point] | – |
| Cc1ccc([C@H]2N[C@]3(CCCN(Cc4ccccc4)C3=O)[C@H]3C(=O)N(C)C(=O)[C@@H]23)cc1 | inconclusive: 29.1 µM [inhibitor, single point] | – |
| COC(=O)[C@@]12C[C@@H](CC(=O)NCCC(C)C)C(=O)N(Cc3cccc4ccccc34)C1=CCC(C)(C)C2 | active: 20.6 µM | – |

| SMILES | Potency | activity change, negative = growth inhibition |
| --- | --- | --- |
| CCCCn1c(-c2ccc(Cl)c(Cl)c2)nc2cc3[nH]c(=O)c(C(C)C)nc3cc21 | inconclusive: 20.6 µM [inhibitor, single point] | – |
| CC(C)c1ccc(S(=O)(=O)c2ccc(NN)cc2)cc1 | inconclusive: 29.1 µM [inhibitor, single point] | – |
| Cc1ccc(-c2c[n+](CC(=O)N3c4ccccc4Sc4ccccc43)c3n2CCC3)cc1 | active: 5.17 µM | – |
| O=C(CCSc1nc(-c2ccco2)cc(C(F)(F)F)n1)NCCc1ccccc1 | inconclusive: 10.3 µM [inhibitor, partial curve, poor fit] | – |
| COc1ccc(OC)c(NC(=O)CN2c3cccc4cccc(c34)S2(=O)=O)c1 | inconclusive: 20.6 µM [inhibitor, single point] | – |
| O=C(CCCC(=O)N(c1ccc2c(c1)OCCO2)C(C(=O)NC1CCCCC1)c1ccc(F)cc1)Nc1ccccn1 (configuration not stated) | inconclusive: 29.1 µM [inhibitor, single point] | – |
| COc1cc(CCC(=O)NCc2ccc3c(c2)CCN3C(=O)c2ccccc2)cc(OC)c1OC | – | inactive: -25.5% |
| O=C(NNC(=S)NCc1ccc(Cl)cc1)c1ccc2c(c1)OCO2 | – | inactive: -10.4% |
| O=C(Nc1nc2ccccc2[nH]1)c1cc(F)cc(F)c1 | inconclusive: 16.4 µM [inhibitor, single point] | – |
| CCCCCCCCCCCCC/C=C/[C@@H](O)[C@H](CO)NC(C)=O | inconclusive: 3.26 µM [inhibitor, single point] | – |
| CC(=O)c1ccc(N2CCN(C(=O)C3CCCN(S(=O)(=O)c4ccc(Br)s4)C3)CC2)cc1 (configuration not stated) | active: 9.2 µM | – |
| OC[C@@H]1CN(Cc2ccc(F)cc2)C[C@H](n2cnc3c(NCc4ccc(F)cc4)ncnc32)O1 | inconclusive: 18.4 µM [inhibitor, single point] | – |
| Cc1cc2cc(C)c3nnc(SCC(=O)Nc4ccc(S(=O)(=O)N5CCCCC5C)cc4)n3c2cc1C (configuration not stated) | active: 10.3 µM | – |
| CCCOc1ccc(-c2nnn(CC(=O)c3c[nH]c4ccccc34)n2)cc1 | – | inactive: -9.65% |
| COC(=O)COc1ccc(NC(=O)C(c2ccccc2)c2ccccc2)cc1 | inconclusive: 29.1 µM [inhibitor, single point] | – |
| CCC1CN(S(=O)(=O)c2cc(-c3cc(C)no3)ccc2C)c2cc(C)ccc2O1 (configuration not stated) | inconclusive: 18.4 µM [inhibitor, single point] | – |
| CC(=O)NS(=O)(=O)c1ccc(N=c2ssc3c2-c2cc(C)c(C)cc2NC3(C)C)cc1 | inconclusive: 18.4 µM [inhibitor, partial curve] | – |
| CC(C)c1nnc(SCC(=O)Nc2ccc3c(c2)OCCO3)n1C | – | inactive: -2.93% |
| CCOC(=O)C1CCCN(C(=O)c2cccc(OC(F)(F)F)c2)CC1 (configuration not stated) | – | inactive: -13.7% |
| O=C(NCCc1ccccc1)c1ccc(-n2cnnn2)cc1 | – | inactive: 1.96% |
| COc1ccc(C(C(=O)NC(C)(C)C)N(Cc2ccc(C)cc2)C(=O)CCC(=O)Nc2cc(C)on2)cc1 (configuration not stated) | inconclusive: 16.4 µM [inhibitor, single point] | – |
| O=C(COC(=O)c1c(F)cccc1F)Nc1cccc(S(=O)(=O)N2CCCCC2)c1 | inconclusive: 0.58 µM [inhibitor, full curve, poor fit] | – |
| Cc1cccc(-n2c(SCC(=O)NCc3ccco3)nc3ccccc3c2=O)c1 | inconclusive: 16.4 µM [inhibitor, single point] | – |

| SMILES | Potency | activity change, negative = growth inhibition |
| --- | --- | --- |
| COc1ccccc1-c1oc2ccccc2c1C#CC1(N)CCCCC1 | active: 14.6 µM | – |
| COc1ccc(F)cc1-c1cc(C(=O)NCc2cc(C(F)(F)F)cc(C(F)(F)F)c2)[nH]n1 | inconclusive: 16.4 µM [inhibitor, single point] | – |
| Cn1cnc([N+](=O)[O-])c1Oc1cccc2ccccc12 | active: 29.1 µM | – |
| Cn1nc(C(C)(C)C)cc1C(=O)N1CCCCC1c1cc(C(=O)NCc2ccc(F)cc2)no1 (configuration not stated) | active: 13 µM | – |
| Clc1cnc(N/N=C/c2ccncc2)c(Cl)c1 | inconclusive: 29.1 µM [inhibitor, single point] | – |
| CC(=O)Nc1ccc(NC(=O)CSc2ccc3nnc(CCNS(=O)(=O)c4ccc(C)cc4)n3n2)cc1 | – | inactive: 28.6% |
| CN(C(=O)Nc1ccc(C(C)(C)C)cc1)C1CCCCC1 | – | inactive: -4.66% |
| C(=Cc1nc2ccccc2o1)c1ccc2c(c1)OCO2 | inconclusive: 29.1 µM [inhibitor, single point] | – |
| CSc1ccc(CCNC(=O)c2cc(C)nc3c2c(C)nn3-c2ccccc2)cc1 | inconclusive: 20.6 µM [inhibitor, single point] | – |
| CC(C)NC(=O)C1(C)CSCC(=O)N1C1CC1 (configuration not stated) | – | inactive: 5.24% |
| N#Cc1nc(-c2ccc(OCc3ccccc3)cc2)oc1NCCCN1CCOCC1 | inconclusive: 25.9 µM [inhibitor, single point] | – |
| Cc1ccc(C)c(N2CCN(S(=O)(=O)c3cc(-c4cc(C)no4)ccc3C)CC2)c1 | active: 16.4 µM | – |
| Cc1nc2cccnc2n1-c1cccc(C(=O)N2CCN(c3cccc(Cl)c3)CC2)c1 | active: 4.61 µM | – |
| CC(C)OC(=O)c1ccc(N2CCN(c3ccc(F)cc3)CC2)nc1 | inconclusive: 29.1 µM [inhibitor, single point] | – |
| COc1ccc(-c2nnc(SCC(=O)NCCc3ccc(OC)c(OC)c3)nc2-c2ccc(OC)cc2)cc1 | active: 18.4 µM | – |
| Cc1nn(CC(=O)NCC(C)c2ccccc2)c(=O)c2cccn12 (configuration not stated) | – | inactive: 3.67% |
| Cc1c(Br)cc(C(=O)NCc2ccco2)c(C)c1C | inconclusive: 23.1 µM [inhibitor, partial curve, poor fit] | – |
| COc1ccc(NS(=O)(=O)c2cccc(C(=O)NCC(c3ccco3)N(C)C)c2)cc1 (configuration not stated) | inconclusive: 20.6 µM [inhibitor, single point] | – |
| O=C(CNC(=O)c1ccco1)NCC(=O)OCc1ccccc1Br | – | inactive: -7.03% |
| CC1(C(=O)NS(=O)(=O)C2CC2)CCCN(C(=O)c2ccc(F)cc2Cl)C1 (configuration not stated) | active: 1.46 µM | – |
| CCOc1ccccc1N(C)C(=O)c1sc2ncn(CC(=O)N3CCCCC3C)c(=O)c2c1C (configuration not stated) | inconclusive: 25.9 µM [inhibitor, single point] | – |
